Here are results for 28 compounds from PubChem BioAssay AID1963576 (National Center for Advancing Translational Sciences (NCATS), 2024).

In all, about 46,000 compounds went through this assay and about 60 (0.1%) were called active. Inconclusive results (about 3%) are left out. Calls come from the whole dose curve; as a rule, active = well fitted inhibition curve with a large enough effect; inconclusive = small, poorly fitted or top-dose-only effect; inactive = no such curve, though single readings can be large or run the other way. This is one part of the list.

A short description of this test: Primary qHTS assay for Inhibitors of ovarian cancer metastasis using an organotypic tumor microenvironment (TME) model.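 For activity change, negative = inhibition: plate controls were DMSO wells for no effect and tomatine positive control wells for full effect.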 Note: nearly all actives have a fitted effect of over 65% in size. The conditions noted are these: SKOV3ip1-GFP adhesion/invasion on 3D omental model, fluorescence; series mostly up to 45.8 µM; activity change, negative = inhibition: at the top concentration. The procedure, abridged:
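qHTS, 4-pt dose (0.36-46 umol/L); SKOV3ip1-GFP, 1,200 cells/well, no FBS; primary omental fibroblast/mesothelial co-culture 48 h pre-grown; 2 h RT + 16 h 37 C; PBS wash, 4% PFA; GFP count 488/509 nm.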
As for `CCOC(=O)c1ccc(N2C(=O)c3[nH]nc(-c4ccc(C)cc4)c3C2c2cccs2)cc1` (stereo not drawn), the “activity change, negative = inhibition” value was inactive: -2.91%.
On the same count and under the same terms, the figure for `CCCCN(CCCC)CCCNC(=O)Cn1cc2c(n1)-c1c(oc(C(=O)N3CCCC3)c1C)CC2` is inactive: 3.12%; for `CCOC(=O)c1[nH]cnc1C(=O)Nc1cccc(OC)c1` it is inactive: -4.94%; for `Cc1ccccc1CCNC(=O)c1ccc2c(c1)nc1n2CCOC1` it is inactive: 3.12%.
For `COC(=O)c1scc(-c2ccc(C)cc2)c1S(=O)(=O)Nc1cc(Cl)c(OC)cc1OC`, the “activity change, negative = inhibition” value is inactive: -6.58%.
Consider `CCCn1c(CCC(=O)Nc2cc(OC)cc(OC)c2)nc2cccnc21`, for which the “activity change, negative = inhibition” value was inactive: -8.6%.
`CCCCOc1ccc(Cn2c(=O)sc3ccccc32)cc1OC`: the “activity change, negative = inhibition” value is inactive: 0.0919%.
Take `CCCn1c(CCC(=O)Nc2cc(C(=O)OC)cc(C(=O)OC)c2)nc2cccnc21`: the “activity change, negative = inhibition” value was inactive: -1.79%.
`Cc1ccc(NC(=O)C2CCCN(S(=O)(=O)c3cccc4nsnc34)C2)cc1C` (stereo not drawn): the compound was classed as inactive.
As for `COc1ccc(-n2c(=O)c3sc4ccccc4c3n(C)c2=O)cc1`, the “activity change, negative = inhibition” value was inactive: -4.31%.
Turning to `CCSc1ncc(Cl)c(C(=O)Nc2nc3ccc(S(C)(=O)=O)cc3s2)n1`, the “activity change, negative = inhibition” value is inactive: -2.82%.
`CCCN1CCN(c2nnc(-n3cccc3C(=O)Nc3cc(Cl)ccc3C)s2)CC1`: the “activity change, negative = inhibition” value is inactive: -3.45%.
Take `CCC(=O)N1c2ccccc2CC1C(=O)NCCc1cc(OC)c(OC)c(OC)c1` (stereo not drawn): the “activity change, negative = inhibition” value is inactive: -4.11%.
`NC(=O)Cc1cccc(C(=O)c2ccccc2)c1N`: the “activity change, negative = inhibition” value is inactive: -13%.
In the case of `N#CC1(c2cccc(C(=O)Nc3cc(Oc4ccc5nc(NC(=O)C6CC6)sc5n4)ccc3F)c2Cl)CC1`, the “activity change, negative = inhibition” value is inactive: 16.4%.
With `C[C@H]1COC2=C1C(=O)C(=O)c1c2ccc2c1CCCC2(C)C`, the “activity change, negative = inhibition” value was inactive: 11.6%.
Consider `Cc1ccc(-c2nc(CS(=O)CC(=O)NCc3ccccc3Cl)c(C)o2)cc1` (stereo not drawn), for which the “activity change, negative = inhibition” value was inactive: 0.0587%.
Consider `CCOC(=O)Cc1ccc(NC(=O)N2CCSc3ccccc32)cc1`, for which the “activity change, negative = inhibition” value is inactive: -3.28%.
Same read-out and setting: the figure for `CCOc1ccc2nc(SCC(=O)Nc3ccc(F)cc3)nc(-c3ccccc3)c2c1` is inactive: -15.3%; for `O=c1ccc2cc(S(=O)(=O)Nc3ccc(F)c(Cl)c3)ccc2[nH]1` it is inactive: -0.119%; for `COc1ccccc1NC(=O)CSC1=Nc2ccccc2C2=NC(CCC(=O)NCc3ccco3)C(=O)N12` (stereo not drawn) it is inactive: -12.7%.
With `COc1ccc(C2(Nc3cccc(F)c3)C(=O)c3ccccc3C2=O)cc1`, the result was inactive.
Consider `COCCNC(=O)C1CCN(C(=O)c2cc3sccc3n2Cc2ccc(Cl)cc2)CC1`, for which the result was inactive.
As to `CCCN(CCC)CCCNC(=O)C1CCCN(Cc2nc(-c3ccc(Cl)cc3)oc2C)C1` (stereo not drawn), the “activity change, negative = inhibition” value was inactive: -26.4%.
For `Cn1nnc2c(NCc3ccc(Cl)cc3)ncnc21`, the compound was classed as inactive.
`O=S(=O)(c1ccc(Cl)cc1)c1nc(-c2cccs2)oc1SCc1ccc(F)cc1`: the “activity change, negative = inhibition” value was inactive: 3.96%.
For `COc1cccc(CNC(=O)Cc2c(C)c3c(cc(C)c4c(C)c(C)oc43)oc2=O)c1`, the compound was classed as inactive.
For `Cc1ccc(-n2ncc3c(NC(C)c4ccccc4)ncnc32)cc1` (stereo not drawn), the “activity change, negative = inhibition” value is inactive: 0.658%.
